Hit rate of the full screen: of about 150,000 compounds, about 540 (0.36%) showed an effect of 50% or more. Some of the results follow.
What follows are compounds tested on Plasmodium falciparum (assay: Primary screen in NF54 nanoGlo assay, in single point, at 2uM, 72h; a lower Z score goes with more inhibition). Conditions: timepoint 72 hour.
Assay type: functional, Erythrocyte
c1ccc(Oc2cccc(CN3CCC(N4CCCCCC4)CC3)c2)cc1 was tested, and the “% Inhibition” value was 2% and the Z score was -0.38. CC(C)(C)OC(=O)N1CCC(C2(O)CCCC2)CC1 was tested, and the “% Inhibition” value was -3% and the Z score was 0.38. Cn1cncc1-c1c(-c2ccccc2)ncn1[C@H](CO)COCc1ccccc1 was tested, and the “% Inhibition” value was -3% and the Z score was 0.57. With NC(=O)Cc1nc([C@@H](O)Cc2ccccc2)n(CC(F)(F)F)n1 the “% Inhibition” value was -16% and the Z score was 2.25. For COc1ccccc1-c1n[nH]c(C2CC2)c1NC(=O)c1ccc(F)cc1, the “% Inhibition” value was -2% and the Z score was 0.29. In the case of Cc1cc(C(=O)Nc2ccc3c(c2)OCO3)c(C)o1, the “% Inhibition” value is reported as -19% and the Z score is reported as 1.67. In the case of O=C(CCc1ccccn1)NC[C@@]12CCC[C@@H]1OCC2, the “% Inhibition” value is reported as -9% and the Z score is reported as 1.13. In the case of O=C1Nc2ccccc2C(O)=NC1CC(=O)N1CCCC(c2nnc3ccccn23)C1 (configuration not stated), the “% Inhibition” value is reported as -4% and the Z score is reported as 0.5. With CC(C(=O)N[C@@H]1C[C@H]1c1c(F)cccc1Cl)n1nnnc1C(C)(C)C (some centres not stated) the “% Inhibition” value was -1% and the Z score was 0.09. In the case of O=C(NCCNc1ncccn1)c1cc(Cl)c2c(c1)OCCCO2, the “% Inhibition” value is reported as -12% and the Z score is reported as 2.18. In the case of Cc1nccn1Cc1coc(-c2ccc(C(F)(F)F)cc2)n1, the “% Inhibition” value is reported as -13% and the Z score is reported as 1.19. With COc1nc(NCC[C@H]2CCCCN2C)ncc1F the “% Inhibition” value was 3% and the Z score was -0.58. Cc1ccc(OC2CN(C3CCNCC3)C2)cc1 was tested, and the “% Inhibition” value was 3% and the Z score was -0.62. With Cn1cc(NS(=O)(=O)c2ccnn2C2CCC2)c(-c2ccco2)n1 the “% Inhibition” value was -4% and the Z score was 0.81. With CCN1c2ccccc2C(=O)NC12CCN(C(=O)Nc1ccc(F)c(Cl)c1)CC2 the “% Inhibition” value was -1% and the Z score was 0.16. For Cc1cnc(C(=O)Nc2ccccc2C(=O)NCCc2ccccc2)cn1, the “% Inhibition” value was -10% and the Z score was 1.14. COCCNCC(=O)N[C@@H](C)c1c(Cl)ccc(F)c1Cl was tested, and the “% Inhibition” value was -2% and the Z score was 0.4. With Cc1cc(Cl)ccc1NC(=O)[C@@H]1CCC(=O)N1 the “% Inhibition” value was -6% and the Z score was 0.97. With C[C@H]1CNCCN1C(=O)c1cn(Cc2cccs2)nn1 the “% Inhibition” value was 7% and the Z score was -1.06. CCc1c(C(=O)O)nnn1-c1ccc2c(c1)CCC2 was tested, and the “% Inhibition” value was -16% and the Z score was 1.76. With CC(C)c1ccc(N2CCC(C(=O)N3CCOCC3)CC2)nn1 the “% Inhibition” value was -4% and the Z score was 0.77. NCC[C@H]1CN(c2cc(-c3ccccc3F)nc3ccnn23)CCO1 was tested, and the “% Inhibition” value was -4% and the Z score was 0.52. With CCNC(=O)N1CCCCC[C@H]1c1nc(COC)no1 the “% Inhibition” value was -7% and the Z score was 1.28. In the case of Cc1cc(C)c(C(=O)N2CCC[C@H]2c2nonc2C)c(=O)[nH]1, the “% Inhibition” value is reported as -1% and the Z score is reported as 0.1. In the case of O=C(Nc1c(F)cccc1NC1CC1)c1cnns1, the “% Inhibition” value is reported as -5% and the Z score is reported as 0.99. For CCOc1cccc(CNc2cccc(C)c2C(N)=O)n1, the “% Inhibition” value was -9% and the Z score was 0.98. In the case of O=c1[nH]c(N2CCC(F)(F)CC2)nc2c1Cc1ccccc1OC2, the “% Inhibition” value is reported as 3% and the Z score is reported as -0.53. For CCCOc1ccc(CN2CC[C@]3(CO)CN(Cc4ccccc4)C[C@@H]3C2)cc1, the “% Inhibition” value was 10% and the Z score was -1.92. For Cc1ccc([C@@H]2Cn3nc(C(=O)Nc4ccccc4C)cc3CO2)cc1, the “% Inhibition” value was -6% and the Z score was 0.83. In the case of CCOC(=O)c1cn(CCc2c[nH]cn2)cc(Oc2ccccc2)c1=O, the “% Inhibition” value is reported as 0% and the Z score is reported as -0.09. CC1CCC(N(C)C(=O)c2ccc3ccccc3n2)CC1 (configuration not stated) was tested, and the “% Inhibition” value was -3% and the Z score was 0.32. With Cc1nc(CCNC(=O)[C@H]2CCCN2S(=O)(=O)c2c(C)noc2C)cs1 the “% Inhibition” value was -17% and the Z score was 2.19. For Cc1nc[nH]c1C(=O)N1CCN(Cc2ccccc2)[C@@H]2CS(=O)(=O)C[C@@H]21, the “% Inhibition” value was -10% and the Z score was 0.95. For CN(CCF)S(=O)(=O)c1ccc(F)c(Br)c1F, the “% Inhibition” value was -13% and the Z score was 1.93. CC(=O)N1CC(C(=O)NCc2cccc(C(F)(F)F)c2)CCC1c1cccc(C)c1 (configuration not stated) was tested, and the “% Inhibition” value was -1% and the Z score was 0.18. For O=C(Nc1ccc(Cl)cn1)C1CC2C=CC1C2 (configuration not stated), the “% Inhibition” value was -12% and the Z score was 1.73. In the case of Cc1ccc(S(=O)(=O)CC(=O)Nc2nnc(-c3cccs3)o2)cc1, the “% Inhibition” value is reported as -15% and the Z score is reported as 2.78. CCOc1cc(N2CCCN(C(=O)c3cccc(F)c3)CC2)ncn1 was tested, and the “% Inhibition” value was -9% and the Z score was 0.87. For C=CCC(O)(CC=C)CN1CC(=O)N2CC[C@@H](O)C[C@H]2C1=O, the “% Inhibition” value was 1% and the Z score was -0.17. In the case of COCCO[C@H]1CCCN(C(=O)c2ncoc2C2CC2)C1, the “% Inhibition” value is reported as -5% and the Z score is reported as 0.58. In the case of Cc1ccc([C@@H]2c3ccsc3CCN2C(=O)CN(C(C)(C)C)S(=O)(=O)c2ccc3ccccc3c2)cc1, the “% Inhibition” value is reported as -14% and the Z score is reported as 1.54. For Cc1cc(CN(CCn2cccn2)Cc2cc(C)on2)no1, the “% Inhibition” value was -3% and the Z score was 0.42. With COc1cccc(C(=O)N/C(=N/c2ccc(F)cc2)NCc2ccccn2)c1 the “% Inhibition” value was -6% and the Z score was 0.59. COc1ccc(CN2C[C@@H]3C[C@H]2C(=O)N3c2ccccc2F)c(F)c1 was tested, and the “% Inhibition” value was -9% and the Z score was 1.26. In the case of CCCN1CCCN(Cc2cncn2C(C)C)CC1, the “% Inhibition” value is reported as -13% and the Z score is reported as 2.58. In the case of O=C(NC[C@@H](c1ccco1)N1CCCC1)N1CCC1, the “% Inhibition” value is reported as -11% and the Z score is reported as 1.98. With Cc1cc(CN(C)[C@@H](C)c2ccc(F)cc2)on1 the “% Inhibition” value was 1% and the Z score was -0.07. In the case of Cc1ccc(-c2noc(C(F)(F)C3CCNCC3)n2)o1, the “% Inhibition” value is reported as -4% and the Z score is reported as 0.71. In the case of Cc1ccc(C)c(S(=O)(=O)NCCCOC2CCCCC2)c1, the “% Inhibition” value is reported as 3% and the Z score is reported as -0.39. With COc1ccc(CNC(=O)CN2C(=O)CCn3nc(-c4ccc(OC)cc4)cc32)cc1 the “% Inhibition” value was 1% and the Z score was -0.08. CCN(CCC(=O)Nc1nc2ccccc2s1)Cc1noc(C)n1 was tested, and the “% Inhibition” value was -7% and the Z score was 1.12. O=C(Cc1c(F)cccc1Cl)N1CC(S(=O)(=O)NC2CCCC2)C1 was tested, and the “% Inhibition” value was -16% and the Z score was 2.68. In the case of CC(C)C(=O)N1CCc2ccc(OCC(=O)NCc3ccccc3)cc2[C@@H]1c1ccccc1, the “% Inhibition” value is reported as -20% and the Z score is reported as 1.93. COC(=O)CN[C@H](c1c(F)cccc1F)C(F)(F)F was tested, and the “% Inhibition” value was -10% and the Z score was 1.15. With CN1CCC2(CC1)CN(C(=O)c1cc3sccc3[nH]1)CCCN2C the “% Inhibition” value was 7% and the Z score was -1.4. With COc1cc(OC23CCCN(CC2)C3)ccc1CN1CCCC1 (configuration not stated) the “% Inhibition” value was -4% and the Z score was 0.61. With CCCn1cnnc1[C@H](C)NC(=O)c1c[nH]c2ccc(OC)cc2c1=O the “% Inhibition” value was -13% and the Z score was 1.4. In the case of Cn1cc(C#N)cc1C(=O)OCc1cccnc1-n1cccn1, the “% Inhibition” value is reported as -1% and the Z score is reported as 0.1. COc1ccccc1/C=C/CN1CCC(c2cc[nH]n2)CC1 was tested, and the “% Inhibition” value was 3% and the Z score was -0.57. With CN(CC1CCC2(CCCC2)O1)C1C2CCOC2C1(C)C (configuration not stated) the “% Inhibition” value was 7% and the Z score was -1.28. For O=C(Cc1ccc(S(=O)(=O)Nc2ccc(Cl)cc2)s1)N1CCCCC1, the “% Inhibition” value was 3% and the Z score was -0.65. In the case of Cc1nn(C)cc1[C@H](C)NC(=O)NCc1nc(C(F)(F)F)no1, the “% Inhibition” value is reported as -7% and the Z score is reported as 1.34. With CCC(C)OCC(=O)N1CC[C@H](C(=O)OC)[C@H](C)C1 (some centres not stated) the “% Inhibition” value was 3% and the Z score was -0.4. For Cc1cc(CN(C)Cc2c(C(=O)N3CCCCC3)nc3sccn23)n[nH]1, the “% Inhibition” value was -7% and the Z score was 1.25. With COc1cccc(N2CCN(C(=O)c3cn4nc(OC)ccc4n3)CC2)c1 the “% Inhibition” value was -7% and the Z score was 1.03. In the case of CC(C)(CNC1[C@@H]2CCCC[C@@H]2C1(C)C)NS(C)(=O)=O (some centres not stated), the “% Inhibition” value is reported as -7% and the Z score is reported as 0.7. In the case of COc1ccc(NC(=O)N2CC[C@H](C3CC3)C2)cc1OC, the “% Inhibition” value is reported as -3% and the Z score is reported as 0.58. With O=C(NC1(c2cccs2)CCCC1)c1cccs1 the “% Inhibition” value was 4% and the Z score was -0.52. In the case of C[C@@H](CCC(=O)N(C)Cc1cc2cc(F)ccc2[nH]1)N1CCOCC1, the “% Inhibition” value is reported as 4% and the Z score is reported as -0.8. For CC(C)N1C2CCC1CN(C(=O)c1ccc(OCC3CC3)nc1)CC2 (configuration not stated), the “% Inhibition” value was 2% and the Z score was -0.15. For COc1ccc(CC(=O)N[C@@H](Cn2nccn2)C(C)C)cc1OC, the “% Inhibition” value was 2% and the Z score was -0.37. For O=C(CS(=O)(=O)c1ccc2c(c1)S(=O)(=O)N=CN2)Nc1ccc(F)cc1, the “% Inhibition” value was 1% and the Z score was -0.12. In the case of O=S1(=O)CCCC1CNC1CCCCC1C1CCCCC1 (configuration not stated), the “% Inhibition” value is reported as -2% and the Z score is reported as 0.18. In the case of Cc1ccc(-n2[nH]c(C(=O)N3CCN(C)C[C@H]3C(C)C)cc2=O)cc1, the “% Inhibition” value is reported as 1% and the Z score is reported as -0.11. With O=C(NCc1cccnc1)[C@]1(F)CCCN(S(=O)(=O)c2ccccc2)C1 the “% Inhibition” value was 5% and the Z score was -0.85. With COc1ccc(Cc2nc([C@H](N)[C@H](C)O)n(-c3cccnc3)n2)cc1 the “% Inhibition” value was -12% and the Z score was 1.6. COC[C@H](C)N1CCN(C(C)=O)CC1 was tested, and the “% Inhibition” value was -6% and the Z score was 0.76. In the case of COc1ccccc1N1CCN(C(=O)CN2C(=O)c3ccccc3Oc3ncccc32)CC1, the “% Inhibition” value is reported as 6% and the Z score is reported as -0.98. CN(C)c1cccc(C(=O)Nc2cccc3nsnc23)c1 was tested, and the “% Inhibition” value was -5% and the Z score was 0.52. CC1(O)CCCN(C(=O)NC2CCCOCC2)C1 (configuration not stated) was tested, and the “% Inhibition” value was -9% and the Z score was 0.77. With CCCCN(C(=O)c1cc(CN2CCC(O)CC2)on1)C1CCCCCC1 the “% Inhibition” value was -13% and the Z score was 1.29. CC(=O)c1ccc(N2CCN(C3CCC(C)C3)CC2)cc1 (configuration not stated) was tested, and the “% Inhibition” value was -7% and the Z score was 1.22. In the case of Fc1ccc(Cl)cc1CN1CCO[C@H](C2CC2)C1, the “% Inhibition” value is reported as -2% and the Z score is reported as 0.36. With COc1ccc2ncn(CCCOC3CCCC3)c(=O)c2c1 the “% Inhibition” value was -11% and the Z score was 0.98. Cc1ccc(S(=O)(=O)Nc2cccc(C(=O)N3CCC[C@H]3C(=O)NC3CCCC3)c2)c(C)c1 was tested, and the “% Inhibition” value was 18% and the Z score was -2.07. CCOC(=O)c1nc2ccccc2nc1Nc1cccc(OC)c1 was tested, and the “% Inhibition” value was 3% and the Z score was -0.32.

— ChEMBL document CHEMBL4888484, “Replenishing the malaria drug discovery pipeline: Screening and hit evaluation of the MMV Hit Generation Library 1 (HGL1) against asexual blood stage Plasmodium falciparum ,using a nano luciferase reporter read-out” (2022)
